# Test results published in the supplement of paper PMC8728848.
# The other results are listed elsewhere or left out.
# What was measured:
# Assay in all cases: glycan array binding signal (z-score within array); higher = stronger binding
# Settings in all cases: glycan notation: IUPAC condensed, linker removed
# [1] = molecular target: Gal(b1-3)GlcNAc(b1-2)Man(a1-3)[Gal(b1-3)GlcNAc(b1-2)Man(a1-6)]Man(b1-4)GlcNAc(b1-4)GlcNAc
# Procedure, shortened: (§1)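 The binding signal is a Z-score computed within each array. Data were drawn from 3228 arrays in the Consortium for Functional Glycomics database, restricted to those with a known protein sequence. Scores were averaged over arrays of the same protein sequence at different concentrations or buffers, and over linkers, and negative values can be taken as non-binding.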
# [2] = molecular target: Gal(b1-3)GlcNAc(b1-2)Man(a1-3)[Gal(b1-3)GlcNAc(b1-2)Man(a1-6)]Man(b1-4)GlcNAc(b1-4)[Fuc(a1-6)]GlcNAc
# Procedure, shortened: as §1
# [3] = molecular target: Gal(b1-3)GlcNAc(b1-2)Man(a1-3)[GlcNAc(b1-4)][Gal(b1-3)GlcNAc(b1-2)Man(a1-6)]Man(b1-4)GlcNAc(b1-4)GlcNAc
# Procedure, shortened: as §1
# [4] = molecular target: Gal(b1-3)GlcNAc(b1-2)[Gal(b1-3)GlcNAc(b1-6)]Man(a1-6)[Gal(b1-3)GlcNAc(b1-2)Man(a1-3)]Man(b1-4)GlcNAc(b1-4)GlcNAc
# Procedure, shortened: as §1
# [5] = molecular target: Gal(b1-3)GlcNAc(b1-3)Gal(b1-3)GlcNAc
# Procedure, shortened: as §1
# [6] = molecular target: Gal(b1-3)GlcNAc(b1-3)Gal(b1-4)Glc
# Procedure, shortened: as §1
# [7] = molecular target: Gal(b1-3)GlcNAc(b1-3)Gal(b1-4)GlcNAc
# Procedure, shortened: as §1
# [8] = molecular target: Gal(b1-3)GlcNAc(b1-3)Gal(b1-4)GlcNAc(b1-2)Man(a1-3)[Gal(b1-3)GlcNAc(b1-3)Gal(b1-4)GlcNAc(b1-2)Man(a1-6)]Man(b1-4)GlcNAc(b1-4)GlcNAc
# Procedure, shortened: as §1
# [9] = molecular target: Gal(b1-3)GlcNAc(b1-3)Gal(b1-4)GlcNAc(b1-2)[Gal(b1-3)GlcNAc(b1-3)Gal(b1-4)GlcNAc(b1-6)]Man(a1-6)[Gal(b1-3)GlcNAc(b1-3)Gal(b1-4)GlcNAc(b1-2)Man(a1-3)]Man(b1-4)GlcNAc(b1-4)[Fuc(a1-6)]GlcNAc
# Procedure, shortened: as §1
# [10] = molecular target: Gal(b1-3)GlcNAc(b1-3)Gal(b1-4)GlcNAc(b1-3)Gal(b1-4)GlcNAc(b1-2)[Gal(b1-3)GlcNAc(b1-3)Gal(b1-4)GlcNAc(b1-3)Gal(b1-4)GlcNAc(b1-6)]Man(a1-6)[Gal(b1-3)GlcNAc(b1-3)Gal(b1-4)GlcNAc(b1-3)Gal(b1-4)GlcNAc(b1-2)Man(a1-3)]Man(b1-4)GlcNAc(b1-4)[Fuc(a1-6)]GlcNAc
# Procedure, shortened: as §1
# [11] = molecular target: Gal(b1-3)GlcNAc(b1-3)Gal(b1-4)GlcNAc(b1-6)[Gal(b1-3)GlcNAc(b1-3)]Gal(b1-4)Glc
# Procedure, shortened: as §1
# [12] = molecular target: Gal(b1-3)GlcNAc(b1-3)Gal(b1-4)[Fuc(a1-3)]GlcNAc
# Procedure, shortened: as §1
# [13] = molecular target: Gal(b1-3)GlcNAc(b1-3)Gal(b1-4)[Fuc(a1-3)]GlcNAc(b1-6)[Gal(b1-3)GlcNAc(b1-3)]Gal(b1-4)Glc
# Procedure, shortened: as §1
# [14] = molecular target: Gal(b1-3)GlcNAc(b1-3)GalNAc
# Procedure, shortened: as §1
# [15] = molecular target: Gal(b1-3)GlcNAc(b1-6)Gal(b1-4)GlcNAc
# Procedure, shortened: as §1
# [16] = molecular target: Gal(b1-3)GlcNAc(b1-6)GalNAc
# Procedure, shortened: as §1
# [17] = molecular target: Gal(b1-3)GlcNAc(b1-6)[Gal(b1-3)]GalNAc
# Procedure, shortened: as §1
# Gal(b1-3)GlcNAc6S = molecular target: Gal(b1-3)GlcNAc6S
# Procedure, shortened: as §1
# [18] = molecular target: Gal(b1-3)[Fuc(a1-4)]GlcNAc
# Procedure, shortened: as §1
# [19] = molecular target: Gal(b1-3)[Fuc(a1-4)]GlcNAc(b1-2)Man
# Procedure, shortened: as §1
# [20] = molecular target: Gal(b1-3)[Fuc(a1-4)]GlcNAc(b1-2)Man(a1-3)[Gal(b1-3)[Fuc(a1-4)]GlcNAc(b1-2)Man(a1-6)]Man(b1-4)GlcNAc(b1-4)[Fuc(a1-6)]GlcNAc
# Procedure, shortened: as §1
# [21] = molecular target: Gal(b1-3)[Fuc(a1-4)]GlcNAc(b1-3)Gal(b1-3)[Fuc(a1-4)]GlcNAc
# Procedure, shortened: as §1
# [22] = molecular target: Gal(b1-3)[Fuc(a1-4)]GlcNAc(b1-3)Gal(b1-4)[Fuc(a1-3)]GlcNAc
# Procedure, shortened: as §1
# [23] = molecular target: Gal(b1-3)[Fuc(a1-4)]GlcNAc(b1-6)GalNAc
# Procedure, shortened: as §1
# [24] = molecular target: Gal(b1-3)[GlcNAc(b1-6)]GalNAc
# Procedure, shortened: as §1
# [25] = molecular target: Gal(b1-3)[Neu5Ac(a2-6)]GalNAc
# Procedure, shortened: as §1
# [26] = molecular target: Gal(b1-3)[Neu5Ac(a2-6)]GlcNAc(b1-4)Gal(b1-4)Glc
# Procedure, shortened: as §1
# [27] = molecular target: Gal(b1-3)[Neu5Ac(b2-6)]GalNAc
# Procedure, shortened: as §1
# Gal(b1-4)Gal = molecular target: Gal(b1-4)Gal
# Procedure, shortened: as §1
# [28] = molecular target: Gal(b1-4)GalNAc(a1-3)[Fuc(a1-2)]Gal(b1-4)GlcNAc
# Procedure, shortened: as §1
# [29] = molecular target: Gal(b1-4)GalNAc(b1-3)[Fuc(a1-2)]Gal(b1-4)GlcNAc
# Procedure, shortened: as §1
# Gal(b1-4)Glc = molecular target: Gal(b1-4)Glc
# Procedure, shortened: as §1
# Gal(b1-4)Glc6S = molecular target: Gal(b1-4)Glc6S
# Procedure, shortened: as §1
# Gal(b1-4)GlcNAc = molecular target: Gal(b1-4)GlcNAc
# Procedure, shortened: as §1
# [30] = molecular target: Gal(b1-4)GlcNAc(a1-6)Gal(b1-4)GlcNAc
# Procedure, shortened: as §1
# Gal(b1-4)GlcNAc(b1-2)Man = molecular target: Gal(b1-4)GlcNAc(b1-2)Man
# Procedure, shortened: as §1
# [31] = molecular target: Gal(b1-4)GlcNAc(b1-2)Man(a1-3)Man(b1-4)GlcNAc(b1-4)GlcNAc
# Procedure, shortened: as §1
binder,measurement,setting,value
Als3-41 (Candida albicans) (protein) KTITGVFNSFNSLTWSNAATYNYKGPGTPTWNAVLGWSLDGTSASPGDTFTLNMPCVFKFTTSQTSVDLTAHGVKYATCQFQAGEEFMTFSTLTCTVSNTLTPSIKALGTVTLPLAFNVGGTGSSVDLEDSKCFTAGTNTVTFNDGGKKISINVDFERSNVDPKGYLTDSRVIPSLNKVSTLFVAPQCANGYTSGTMGFANTYGDVQIDCSNIHVGITKGLNDWNYPVSSESFSYTKTCSSNGIFITYKNVPAGYRPFVDAYISATDVNSYTLSYANEYTCAGGYWQRAPFTLRWTGYRNSDAGSNGIVIVATTRTVTDSTTAVTTLPFDPNRDKTKTIEILKPIPTTTITTSYVGVTTSYLTKTAPIGETATVIVD,glycan array binding signal (z-score),[1],-0.211
same,glycan array binding signal (z-score),[2],-0.291
same,glycan array binding signal (z-score),[3],0.317
same,glycan array binding signal (z-score),[4],-0.281
same,glycan array binding signal (z-score),[5],0.028
same,glycan array binding signal (z-score),[6],-0.33
same,glycan array binding signal (z-score),[7],-0.159
same,glycan array binding signal (z-score),[8],0.175
same,glycan array binding signal (z-score),[9],0.669
same,glycan array binding signal (z-score),[10],0.045
same,glycan array binding signal (z-score),[11],-0.376
same,glycan array binding signal (z-score),[12],-0.095
same,glycan array binding signal (z-score),[13],-0.357
same,glycan array binding signal (z-score),[14],-0.091
same,glycan array binding signal (z-score),[15],-0.234
same,glycan array binding signal (z-score),[16],-0.311
same,glycan array binding signal (z-score),[17],0.046
same,glycan array binding signal (z-score),Gal(b1-3)GlcNAc6S,-0.278
same,glycan array binding signal (z-score),[18],-0.315
same,glycan array binding signal (z-score),[19],-0.081
same,glycan array binding signal (z-score),[20],-0.339
same,glycan array binding signal (z-score),[21],0.013
same,glycan array binding signal (z-score),[22],-0.357
same,glycan array binding signal (z-score),[23],0.486
same,glycan array binding signal (z-score),[24],-0.166
same,glycan array binding signal (z-score),[25],-0.251
same,glycan array binding signal (z-score),[26],-0.317
same,glycan array binding signal (z-score),[27],-0.359
same,glycan array binding signal (z-score),Gal(b1-4)Gal,-0.215
same,glycan array binding signal (z-score),[28],-0.238
same,glycan array binding signal (z-score),[29],-0.258
same,glycan array binding signal (z-score),Gal(b1-4)Glc,-0.273
same,glycan array binding signal (z-score),Gal(b1-4)Glc6S,-0.217
same,glycan array binding signal (z-score),Gal(b1-4)GlcNAc,-0.217
same,glycan array binding signal (z-score),[30],0.128
same,glycan array binding signal (z-score),Gal(b1-4)GlcNAc(b1-2)Man,-0.112
same,glycan array binding signal (z-score),[31],-0.116
